{"source": "paper PMC6212790", "note": "The list shows a part of the results. At the low end of the ranking the order means little.", "data": [{"biological_target": "T1, GST-Rok (full length) (UniProt O34857)", "T1 sequence": "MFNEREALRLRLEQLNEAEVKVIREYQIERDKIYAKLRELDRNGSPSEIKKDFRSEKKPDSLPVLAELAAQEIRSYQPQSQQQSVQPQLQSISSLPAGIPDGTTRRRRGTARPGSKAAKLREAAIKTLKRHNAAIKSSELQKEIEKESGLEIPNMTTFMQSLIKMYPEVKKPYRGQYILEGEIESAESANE", "test": "protein binding microarray;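 note: rank score from −0.5 (least bound) to 0.5 (best bound)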", "conditions": "Rok is a gene silencer of Bacillus subtilis; high values mean tight binding; most listed sequences are background and not binding sites; double strand, one strand shown", "units": {"binding signal": "E-score"}, "values": [{"sequence": "TCACAAAA", "binding signal": -0.0579}, {"sequence": "GCCGTTAC", "binding signal": 0.14}, {"sequence": "GCCGTTCA", "binding signal": -0.0857}, {"sequence": "CGCTCTGC", "binding signal": -0.209}, {"sequence": "CTCACTCA", "binding signal": 0.0449}, {"sequence": "TACGCCAA", "binding signal": 0.0298}, {"sequence": "ATAACTAG", "binding signal": 0.243}, {"sequence": "CCGGCCAA", "binding signal": -0.257}, {"sequence": "GTCCGCTA", "binding signal": -0.189}, {"sequence": "AGCGCGTG", "binding signal": -0.0994}, {"sequence": "TGAGCCCA", "binding signal": -0.203}, {"sequence": "ATACGAAT", "binding signal": 0.172}, {"sequence": "CTGGTCAC", "binding signal": -0.281}, {"sequence": "ACAGGGTA", "binding signal": -0.00656}, {"sequence": "CCTCAAAG", "binding signal": -0.166}, {"sequence": "GAGGTCGC", "binding signal": -0.279}, {"sequence": "ACAGTCGT", "binding signal": -0.0214}, {"sequence": "CTGTTCAC", "binding signal": 0.0251}, {"sequence": "CGGACGCC", "binding signal": -0.313}, {"sequence": "ATTTTCAG", "binding signal": 0.104}, {"sequence": "GATTTCGA", "binding signal": 0.183}, {"sequence": "CACGCCAC", "binding signal": -0.225}, {"sequence": "TCATAAAA", "binding signal": 0.194}, {"sequence": "CATCTATC", "binding signal": 0.289}, {"sequence": "ATCGATGC", "binding signal": 0.165}, {"sequence": "CTGGCCAG", "binding signal": -0.266}, {"sequence": "TCAGTTAA", "binding signal": 0.221}, {"sequence": "CCTATATC", "binding signal": 0.00873}, {"sequence": "GATATCTA", "binding signal": 0.4}, {"sequence": "GATGACAA", "binding signal": 0.124}, {"sequence": "GAGCGAAA", "binding signal": -0.0169}, {"sequence": "CCTCGTAC", "binding signal": -0.194}, {"sequence": "ACGACAAA", "binding signal": 0.0714}, {"sequence": "GCATGGGC", "binding signal": -0.196}, {"sequence": "CGTCAACC", "binding signal": -0.18}, {"sequence": "CTACGGAC", "binding signal": "-1.04e-05"}, {"sequence": "CCATGTAA", "binding signal": 0.217}, {"sequence": "CCAAAGGG", "binding signal": -0.318}, {"sequence": "ACTAAGCG", "binding signal": -0.228}, {"sequence": "ATAAAACG", "binding signal": 0.0497}, {"sequence": "TATAGGCA", "binding signal": 0.157}, {"sequence": "GGCAGATA", "binding signal": -0.0284}, {"sequence": "CCTGGGAC", "binding signal": -0.26}, {"sequence": "AGATTATG", "binding signal": 0.103}, {"sequence": "AACACTGG", "binding signal": -0.173}, {"sequence": "AGATATAC", "binding signal": 0.238}, {"sequence": "CGAAGTAG", "binding signal": 0.179}, {"sequence": "CTCGAAGC", "binding signal": -0.306}, {"sequence": "ATTGATTC", "binding signal": 0.127}, {"sequence": "ATCAAATA", "binding signal": 0.262}, {"sequence": "GGCCTAAA", "binding signal": -0.0996}, {"sequence": "TCCCGCCA", "binding signal": -0.156}, {"sequence": "ATTCTTCG", "binding signal": 0.166}, {"sequence": "ACATGCAC", "binding signal": 0.141}, {"sequence": "CTCGACGA", "binding signal": -0.125}, {"sequence": "GGTGCGTA", "binding signal": -0.109}, {"sequence": "CTAAGAAC", "binding signal": -0.101}, {"sequence": "AGATCAGC", "binding signal": -0.0777}, {"sequence": "AATGCATG", "binding signal": -0.0198}, {"sequence": "ATCGAAGA", "binding signal": -0.0316}, {"sequence": "AATCTGGG", "binding signal": 0.013}, {"sequence": "GAGGCCGA", "binding signal": -0.352}, {"sequence": "AGACAGCA", "binding signal": -0.138}, {"sequence": "ATATAAAC", "binding signal": 0.262}, {"sequence": "ATACTCGA", "binding signal": 0.176}, {"sequence": "AGACATGA", "binding signal": -0.0138}, {"sequence": "GCATAGCC", "binding signal": -0.0878}, {"sequence": "AGTCGGTA", "binding signal": 0.187}, {"sequence": "AGGCGGGG", "binding signal": -0.296}, {"sequence": "AAGTTCGA", "binding signal": 0.213}, {"sequence": "AATGTATC", "binding signal": 0.224}, {"sequence": "TATGACGA", "binding signal": 0.139}, {"sequence": "CTAATGTC", "binding signal": 0.0193}, {"sequence": "ATCTTCGC", "binding signal": -0.0637}, {"sequence": "CTCCTAGA", "binding signal": -0.0961}, {"sequence": "AGAAACAC", "binding signal": -0.0933}, {"sequence": "AAGATTGT", "binding signal": 0.0761}, {"sequence": "CTCGCTAA", "binding signal": -0.0951}, {"sequence": "ATCTAATC", "binding signal": 0.351}, {"sequence": "AGAGCCGC", "binding signal": -0.305}, {"sequence": "CAAGTACC", "binding signal": 0.081}, {"sequence": "CAGCAGCC", "binding signal": -0.345}, {"sequence": "AGGGCAGC", "binding signal": -0.405}, {"sequence": "GAGTTCCC", "binding signal": -0.109}, {"sequence": "TAAAACTA", "binding signal": 0.375}, {"sequence": "GGCTTCAC", "binding signal": -0.305}, {"sequence": "CCTGGCTC", "binding signal": -0.272}, {"sequence": "GGTATTTA", "binding signal": 0.356}, {"sequence": "GCTAATAC", "binding signal": 0.244}, {"sequence": "ACGGTATG", "binding signal": 0.0718}, {"sequence": "GTGCTTAA", "binding signal": -0.0199}, {"sequence": "ATAGCAAA", "binding signal": 0.187}, {"sequence": "GCATCAGC", "binding signal": -0.115}, {"sequence": "GCCAATTA", "binding signal": -0.0326}, {"sequence": "CACATACC", "binding signal": 0.172}, {"sequence": "AAATAAAG", "binding signal": 0.126}, {"sequence": "CAACTTGA", "binding signal": -0.101}, {"sequence": "CGTCTGCC", "binding signal": -0.361}, {"sequence": "CTGGCACC", "binding signal": -0.218}, {"sequence": "GGCAGGAA", "binding signal": 0.059}, {"sequence": "CGATTCTC", "binding signal": 0.123}, {"sequence": "ATATATCG", "binding signal": 0.381}, {"sequence": "AAGCTCGT", "binding signal": -0.333}, {"sequence": "CATCCCCG", "binding signal": -0.144}, {"sequence": "AGTTTAAT", "binding signal": 0.208}, {"sequence": "CTAAGCAC", "binding signal": -0.0167}, {"sequence": "CACACGGC", "binding signal": -0.092}, {"sequence": "AAATGGTA", "binding signal": 0.274}, {"sequence": "GAGACAAC", "binding signal": -0.128}, {"sequence": "AAAGATTG", "binding signal": 0.0428}, {"sequence": "CCACCTGA", "binding signal": -0.253}, {"sequence": "GATTTCAA", "binding signal": -0.0853}, {"sequence": "AACAACTC", "binding signal": 0.0513}, {"sequence": "CCCGAGGC", "binding signal": -0.324}, {"sequence": "CCATTCGC", "binding signal": -0.137}, {"sequence": "AACACGAA", "binding signal": 0.0286}, {"sequence": "ACGCTTGA", "binding signal": -0.0199}, {"sequence": "AACTTATA", "binding signal": 0.403}, {"sequence": "CCAATGGG", "binding signal": -0.118}, {"sequence": "ATGCTTGC", "binding signal": -0.246}, {"sequence": "CTCTAACC", "binding signal": -0.055}, {"sequence": "CTGCTTGA", "binding signal": 0.00245}, {"sequence": "TAACGGCA", "binding signal": -0.0579}, {"sequence": "ATTCACAC", "binding signal": 0.148}, {"sequence": "ACCTCAAT", "binding signal": 0.0786}, {"sequence": "AGAACTAT", "binding signal": 0.381}, {"sequence": "AATTACGC", "binding signal": 0.211}, {"sequence": "AAAAAACC", "binding signal": 0.125}, {"sequence": "ATAGCAAC", "binding signal": 0.224}, {"sequence": "CATCGACC", "binding signal": -0.0646}, {"sequence": "GGGTATAA", "binding signal": 0.205}, {"sequence": "CCGGTGCC", "binding signal": -0.257}, {"sequence": "ATTTCAGA", "binding signal": 0.192}, {"sequence": "CTCACGCC", "binding signal": -0.28}, {"sequence": "AATATAAG", "binding signal": 0.275}, {"sequence": "CCCTTGCG", "binding signal": -0.348}, {"sequence": "AGCGCGGA", "binding signal": -0.184}, {"sequence": "CACGCAAA", "binding signal": -0.106}, {"sequence": "CATTGACC", "binding signal": 0.0269}, {"sequence": "CGAGCAGC", "binding signal": -0.106}, {"sequence": "ATTTTATC", "binding signal": 0.312}, {"sequence": "ACGGACAC", "binding signal": -0.126}, {"sequence": "GAGACATC", "binding signal": 0.00331}, {"sequence": "ATGCCTTA", "binding signal": 0.0864}, {"sequence": "ATGACTTG", "binding signal": -0.0121}, {"sequence": "TAGGGAAA", "binding signal": 0.0583}, {"sequence": "CGAAAATA", "binding signal": 0.244}, {"sequence": "AAGCTCAT", "binding signal": 0.128}, {"sequence": "ATCTGGGC", "binding signal": -0.0839}, {"sequence": "ATTACTAG", "binding signal": 0.398}, {"sequence": "ACGTTAAT", "binding signal": 0.171}, {"sequence": "ATACGTAC", "binding signal": 0.312}, {"sequence": "ATTCTAAC", "binding signal": 0.0638}, {"sequence": "ATTAGTGA", "binding signal": 0.192}, {"sequence": "GCACAGGC", "binding signal": -0.229}, {"sequence": "AGGGGGCG", "binding signal": -0.332}, {"sequence": "ACTTGGGA", "binding signal": -0.0812}, {"sequence": "CGTCTCTC", "binding signal": -0.199}, {"sequence": "CAACAACA", "binding signal": 0.0149}, {"sequence": "AGTAATCG", "binding signal": 0.0386}, {"sequence": "GTACGCGA", "binding signal": 0.136}, {"sequence": "GAAACTTC", "binding signal": 0.224}, {"sequence": "AACCCGCA", "binding signal": -0.126}, {"sequence": "ATCACTAG", "binding signal": 0.208}, {"sequence": "CGGTGCGC", "binding signal": -0.341}, {"sequence": "ATAAGATA", "binding signal": 0.317}, {"sequence": "ACTTCGAC", "binding signal": 0.022}, {"sequence": "AGGGACCA", "binding signal": -0.203}, {"sequence": "ATTCTTAG", "binding signal": 0.165}, {"sequence": "GATAAAAC", "binding signal": 0.232}, {"sequence": "AGGTTACC", "binding signal": -0.0392}, {"sequence": "AAAAAGGA", "binding signal": 0.0196}]}]}
